Assay results taken from PMC4336329 (PLoS ONE, 2015).
In all, about 310,000 compounds went through this assay and about 14,000 (4.5%) showed an effect of 50% or more. The effect is printed as a negative number. Some of the results follow.

biological target: human ether-à-go-go-related gene (hERG) potassium channel (human, UniProt Q12809); experiment: primary screen, population patch clamp on CHO cells stably expressing hERG
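Note: peak tail current of the secondary pulse compared with the same well before compound.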

Sequence of human ether-à-go-go-related gene (hERG) potassium channel (Q12809 whole entry, looked up): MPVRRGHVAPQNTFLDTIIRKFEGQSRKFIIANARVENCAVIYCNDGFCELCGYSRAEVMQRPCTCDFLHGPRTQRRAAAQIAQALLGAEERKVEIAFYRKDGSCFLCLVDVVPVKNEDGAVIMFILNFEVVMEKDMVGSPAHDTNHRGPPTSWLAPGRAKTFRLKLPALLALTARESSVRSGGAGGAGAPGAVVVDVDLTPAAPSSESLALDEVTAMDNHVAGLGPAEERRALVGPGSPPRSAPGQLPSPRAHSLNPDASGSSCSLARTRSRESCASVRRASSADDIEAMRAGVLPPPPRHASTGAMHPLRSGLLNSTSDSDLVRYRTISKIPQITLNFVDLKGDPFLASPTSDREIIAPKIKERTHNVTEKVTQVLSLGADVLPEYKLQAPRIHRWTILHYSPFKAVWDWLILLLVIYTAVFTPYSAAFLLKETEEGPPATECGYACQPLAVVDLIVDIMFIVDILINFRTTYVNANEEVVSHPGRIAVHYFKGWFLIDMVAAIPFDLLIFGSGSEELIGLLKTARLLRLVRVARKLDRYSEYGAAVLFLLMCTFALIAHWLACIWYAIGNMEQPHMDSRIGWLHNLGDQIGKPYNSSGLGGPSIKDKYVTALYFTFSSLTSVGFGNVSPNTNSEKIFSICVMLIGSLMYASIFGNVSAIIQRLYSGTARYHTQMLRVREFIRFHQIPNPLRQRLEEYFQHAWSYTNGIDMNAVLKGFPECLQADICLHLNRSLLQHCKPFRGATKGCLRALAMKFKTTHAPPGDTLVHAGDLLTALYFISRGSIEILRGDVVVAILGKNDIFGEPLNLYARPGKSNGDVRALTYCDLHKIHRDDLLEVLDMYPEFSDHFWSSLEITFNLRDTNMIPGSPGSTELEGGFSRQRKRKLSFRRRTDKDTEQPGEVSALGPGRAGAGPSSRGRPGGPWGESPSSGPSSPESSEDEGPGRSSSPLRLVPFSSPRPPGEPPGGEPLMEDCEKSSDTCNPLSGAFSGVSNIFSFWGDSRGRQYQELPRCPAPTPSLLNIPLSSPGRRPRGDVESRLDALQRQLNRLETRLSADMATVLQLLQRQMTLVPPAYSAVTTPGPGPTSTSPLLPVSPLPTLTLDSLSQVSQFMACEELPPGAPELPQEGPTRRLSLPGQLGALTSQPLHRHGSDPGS

Going from `Cc1ccc(NC(=O)NCCN2CCCCC2)cc1Cl` to `O=C(Nc1cccc(S(=O)(=O)N2CCCCC2)c1)C1CC1`, the “hERG current change (%, negative = inhibition) at 10uM” value rises from -51.7% to -10.6%.

First: C=C(C)CSc1nnc(-c2cccc(Cl)c2)n1N
Second: CN(C)c1nnc(-c2ccc(Cl)cc2)o1
The “hERG current change (%, negative = inhibition) at 10uM” value of the first is lower: 14% for the first, 16.6% for the second.

Going from `COc1cc(NS(=O)(=O)c2ccc(NC(=O)COc3ccccc3Cl)cc2)nc(OC)n1` to `COc1ccccc1C(=O)OCC(=O)Nc1ccc(OC(F)F)cc1`, the “hERG current change (%, negative = inhibition) at 10uM” value falls from -10.7% to -32.2%.

Going from `COc1cc2c(cc1OC)C(C(=O)NC(C)C)C1CCCCN1C2=O` (stereo not drawn) to `CCOc1ccc(-n2cc(C(=O)N3CCC(C)CC3)c3cc(OC)c(OC)cc3c2=O)cc1`, the “hERG current change (%, negative = inhibition) at 10uM” value falls from 10.7% to -25.7%.

Compared with `CCN(C(=O)Cc1c(C(=O)O)n(C)c2ccccc12)c1ccc(F)cc1`, `COc1ccccc1NC(=O)COC(=O)c1c(C)nn(-c2ccccc2)c1C` is lower in “hERG current change (%, negative = inhibition) at 10uM” value: 24.3% for the first, -9.56% for the second.

First: CC1(C)SC(=S)N(/N=C/c2ccccc2O)C1N(O)C(=O)Nc1ccccc1 (stereo not drawn)
Second: Oc1ccc(/C=N/N(c2ccccc2)c2ccccc2)c(O)c1O
The “hERG current change (%, negative = inhibition) at 10uM” value of the first is lower: -5.55% for the first, 19.3% for the second.

Compared with `COCCOC(=O)C1=C(C)NC2=C(C(=O)CC(C)(C)C2)C1c1cc2c(cc1Br)OCO2` (stereo not drawn), `COc1cccc(C(=O)OC(C)C(=O)Nc2ccc3c(c2)OCO3)c1` (stereo not drawn) is higher in “hERG current change (%, negative = inhibition) at 10uM” value: -1.29% for the first, -0.0476% for the second.

Compared with `CC1=C(C#N)C(c2cn(-c3ccccc3)nc2-c2cccs2)C(C#N)=C(C)N1`, `N#Cc1cc(-c2ccccc2)nc(Oc2ccc(Cl)cc2)n1` is higher in “hERG current change (%, negative = inhibition) at 10uM” value: -3.82% for the first, 3.36% for the second.

Compared with `S=C(NCC1CCCO1)NC12CC3CC(CC(C3)C1)C2` (stereo not drawn), `O=C(NC1CC2CCC(C1)N2C(=O)NC1CCCCC1)NC12CC3CC(CC(C3)C1)C2` (stereo not drawn) is lower in “hERG current change (%, negative = inhibition) at 10uM” value: 8.93% for the first, 0.38% for the second.

Going from `CCOC(=O)C1CCN(C(=O)Cn2cc(C(=O)C3CC3)c3ccccc32)CC1` to `COC(=O)C1CCN(CC(=O)Nc2cc(Cl)ccc2OC)CC1`, the “hERG current change (%, negative = inhibition) at 10uM” value falls from 6.16% to -19%.

Going from `Cc1cccc(NS(=O)(=O)c2ccc3c(c2)NC(=O)CO3)c1C` to `CC(C)NS(=O)(=O)c1ccc2c(c1)NCC2`, the “hERG current change (%, negative = inhibition) at 10uM” value rises from 3.88% to 20.7%.

Going from `COc1ccc(N2C(=O)CSC23CCC(C(C)(C)C)CC3)cc1` (stereo not drawn) to `COc1ccc(NC(=O)c2ccccc2NC(=O)NC2CCCCC2)cc1`, the “hERG current change (%, negative = inhibition) at 10uM” value rises from -9.15% to 6%.

Going from `COCCn1c(SCC(=O)N2CCCC2)nnc1-c1ccoc1C` to `Cc1ccc(C(=O)Nc2ccccc2N2CCCC2)s1`, the “hERG current change (%, negative = inhibition) at 10uM” value falls from 5.15% to -15.8%.

Going from `Oc1ccc(C2N=C(c3ccccc3)NC(c3ccccc3)=N2)cc1` to `CN(Cc1cnccn1)C(=O)CC1C(=O)NCCN1CC(c1ccccc1)c1ccccc1` (stereo not drawn), the “hERG current change (%, negative = inhibition) at 10uM” value rises from -0.167% to 12.2%.

First: O=c1cc(CO)oc(C(Nc2ccccn2)c2ccc(C(F)(F)F)cc2)c1O (stereo not drawn)
Second: C/C(=N\NC(=O)c1ccc(Cl)c(Cl)c1)c1ccccn1
The “hERG current change (%, negative = inhibition) at 10uM” value of the first is lower: 7.19% for the first, 13.1% for the second.

First: C/C(=N\Nc1nncc2ccccc12)c1ccc(C(C)(C)C)cc1
Second: COc1ccc(C(=O)O/N=C(\N)c2ccc(Br)cc2)cc1
The “hERG current change (%, negative = inhibition) at 10uM” value of the first is higher: 18.9% for the first, 17.6% for the second.

Compared with `Cc1cc(-c2nnc(CCC(=O)N(C)Cc3ccsc3)o2)no1`, `O=C(NCCc1csc(-c2cccnc2)n1)c1ccccc1Br` is lower in “hERG current change (%, negative = inhibition) at 10uM” value: 15.1% for the first, -4.05% for the second.

Going from `CCCCNC(=O)Cn1cnc2ccc(S(=O)(=O)N3CCC(C)CC3)cc2c1=O` to `Cc1cc(F)ccc1S(=O)(=O)N1CCCOC1CNC(=O)C(=O)NCCCN1CCOCC1` (stereo not drawn), the “hERG current change (%, negative = inhibition) at 10uM” value rises from 2.68% to 11.6%.

Compared with `O=C(Cc1c(F)cccc1Cl)NNC(=O)c1ccncc1`, `COc1ccccc1NC(=O)c1ccc2c(c1)CCN2S(C)(=O)=O` is higher in “hERG current change (%, negative = inhibition) at 10uM” value: -4% for the first, 3.9% for the second.

Going from `COc1cc(/C=N/N=C2/C(=O)Nc3ccccc32)ccc1O` to `COc1ccc(/C=N/n2c(-c3n[nH]c4c3CCC4)n[nH]c2=S)cc1`, the “hERG current change (%, negative = inhibition) at 10uM” value rises from 0.556% to 22.1%.

Going from `COCCOc1ccc(C(F)(F)F)cc1NC(=O)Cc1ccc(S(=O)(=O)N2CCOCC2)s1` to `COc1ccccc1-c1cc(C(F)(F)F)nc(N2CCOCC2)n1`, the “hERG current change (%, negative = inhibition) at 10uM” value rises from -45.6% to -5.03%.

Going from `O=c1[nH]ncc(N2CCCCC2)c1Cl` to `O=C(Cn1c(-c2ccccc2)noc1=O)Nc1ccc(N2CCCCCC2)cc1`, the “hERG current change (%, negative = inhibition) at 10uM” value rises from 6.3% to 6.95%.

Compared with `CCOC(=O)c1cnc2cc3c(cn2c1=O)CCCC3`, `CC(C)c1nc(SCC(=O)Nc2ccc(C(=O)O)cc2)c2c3c(sc2n1)CCCC3` is higher in “hERG current change (%, negative = inhibition) at 10uM” value: -9.43% for the first, 4.84% for the second.

First: NS(=O)(=O)c1ccc(CCNC(=O)CSc2ccsc2[N+](=O)[O-])cc1
Second: CCCCN(C)CCNC(=O)CCn1nc(-c2ccc(C)cc2)ccc1=O
The “hERG current change (%, negative = inhibition) at 10uM” value of the first is higher: 14.5% for the first, -83.4% for the second.

First: Cc1cc(C(C)(C)C)oc1C(=O)N(CC(=O)NC1CCCC1)Cc1ccc(Cl)cc1
Second: CCCN(CC(=O)Nc1ccccc1OC)C(=O)CSc1nc(C)cc(C)n1
The “hERG current change (%, negative = inhibition) at 10uM” value of the first is higher: -2.27% for the first, -6.81% for the second.

Compared with `Cc1nc(NC(=O)CCl)sc1C(=O)N(C)C`, `CC1CCCC(NC(=O)c2ccc3c(c2)OCCO3)C1C` (stereo not drawn) is lower in “hERG current change (%, negative = inhibition) at 10uM” value: 18.1% for the first, -10.2% for the second.

First: CCC(C)(C)n1nnnc1CN(Cc1cc2cc(OC)c(OC)cc2[nH]c1=O)C1CCCC1
Second: COc1ccc(N2CCN(C(CNS(=O)(=O)c3cccs3)c3cccnc3)CC2)cc1 (stereo not drawn)
The “hERG current change (%, negative = inhibition) at 10uM” value of the first is higher: 8.29% for the first, -72.5% for the second.

Going from `CN1C[C@@H]2C[C@@H](c3cccn3-c3nccs3)N3CCC[C@@]23C1=O` to `Cc1cc(N2CCN(C)CC2)nc2ccccc12`, the “hERG current change (%, negative = inhibition) at 10uM” value rises from -19.2% to -0.28%.

With `CC(Sc1n[nH]c(N)n1)C(=O)C12CC3CC(CC(C3)C1)C2` (stereo not drawn) the “hERG current change (%, negative = inhibition) at 10uM” value was -22.2%.
